# The supplement of paper PMC8728848
# Some of the results follow.
# B1: Epa23 (Candida glabrata) (protein)
# chain: MGSSHHHHHHSSGLVPRGSHMIPNPFEGTINNFPSGCSPNHGLYNRGLTMELYNYSYIHPQSIQSYFNTSTLKKMEKGQCWDPSYLDVNYPRTGYKTHNRFAKVNGIDGILDFEFNPTRSCVPSKGQLPQNYNYPLQFTLSNFTMLLYGYFKPKVTAKHTFTIFADDLLFLNFGAGNAFDCCQQQDTIDDFGNYQAYALWGSDTQQNTLTVNLDANIYYPIRMFYNNRDFKGALNMYFTTDESNTKINDFSGYLFNIPDSSEGCPAHISYETECGNVSG
# How the values were obtained:
# Assay in all cases: glycan array binding signal (z-score within array); higher = stronger binding
# Details in all cases: glycan notation: IUPAC condensed, linker removed
# [1] = target: Neu5Ac(a2-3)Gal(b1-3)GlcNAc(b1-2)Man
# Method in brief: (§1)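 From the Consortium for Functional Glycomics database, 3228 arrays were curated, keeping only those whose protein sequence was available. Binding is given as a within-array Z-score averaged across arrays sharing a protein sequence and across linkers. Negative Z-scores can be read as non-binding.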
# [2] = target: Neu5Ac(a2-3)Gal(b1-3)GlcNAc(b1-2)Man(a1-3)[GlcNAc(b1-4)][Neu5Ac(a2-3)Gal(b1-3)GlcNAc(b1-2)Man(a1-6)]Man(b1-4)GlcNAc(b1-4)GlcNAc
# Method in brief: as §1
# [3] = target: Neu5Ac(a2-3)Gal(b1-3)GlcNAc(b1-2)Man(a1-3)[Neu5Ac(a2-3)Gal(b1-3)GlcNAc(b1-2)Man(a1-6)]Man(b1-4)GlcNAc(b1-4)GlcNAc
# Method in brief: as §1
# [4] = target: Neu5Ac(a2-3)Gal(b1-3)GlcNAc(b1-2)[Neu5Ac(a2-3)Gal(b1-3)GlcNAc(b1-4)]Man(a1-6)[Neu5Ac(a2-3)Gal(b1-3)GlcNAc(b1-2)Man(a1-3)]Man(b1-4)GlcNAc(b1-4)GlcNAc
# Method in brief: as §1
# [5] = target: Neu5Ac(a2-3)Gal(b1-3)GlcNAc(b1-3)Gal(b1-3)GlcNAc
# Method in brief: as §1
# [6] = target: Neu5Ac(a2-3)Gal(b1-3)GlcNAc(b1-3)Gal(b1-4)GlcNAc
# Method in brief: as §1
# [7] = target: Neu5Ac(a2-3)Gal(b1-3)GlcNAc(b1-3)GalNAc
# Method in brief: as §1
# [8] = target: Neu5Ac(a2-3)Gal(b1-3)GlcNAc(b1-4)Gal(b1-4)Glc
# Method in brief: as §1
# [9] = target: Neu5Ac(a2-3)Gal(b1-3)GlcNAc(b1-6)GalNAc
# Method in brief: as §1
# [10] = target: Neu5Ac(a2-3)Gal(b1-3)GlcNAc6S
# Method in brief: as §1
# [11] = target: Neu5Ac(a2-3)Gal(b1-3)[Fuc(a1-4)]GlcNAc
# Method in brief: as §1
# [12] = target: Neu5Ac(a2-3)Gal(b1-3)[Fuc(a1-4)]GlcNAc(b1-3)Gal(b1-3)[Fuc(a1-4)]GlcNAc
# Method in brief: as §1
# [13] = target: Neu5Ac(a2-3)Gal(b1-3)[Fuc(a1-4)]GlcNAc(b1-3)Gal(b1-4)[Fuc(a1-3)]GlcNAc
# Method in brief: as §1
# [14] = target: Neu5Ac(a2-3)Gal(b1-3)[GlcNAc(b1-6)]GalNAc
# Method in brief: as §1
# [15] = target: Neu5Ac(a2-3)Gal(b1-3)[Neu5Ac(a2-6)]GalNAc
# Method in brief: as §1
# [16] = target: Neu5Ac(a2-3)Gal(b1-3)[Neu5Ac(a2-6)]GlcNAc(b1-3)[Fuc(a1-3)[Gal(b1-4)]GlcNAc(b1-6)]Gal(b1-4)Glc
# Method in brief: as §1
# [17] = target: Neu5Ac(a2-3)Gal(b1-3)]Neu5Ac(a2-3)Gal(b1-4)]GlcNAc
# Method in brief: as §1
# [18] = target: Neu5Ac(a2-3)Gal(b1-4)Glc
# Method in brief: as §1
# [19] = target: Neu5Ac(a2-3)Gal(b1-4)GlcNAc
# Method in brief: as §1
# [20] = target: Neu5Ac(a2-3)Gal(b1-4)GlcNAc(b1-2)Man
# Method in brief: as §1
# [21] = target: Neu5Ac(a2-3)Gal(b1-4)GlcNAc(b1-2)Man(a1-3)[GlcNAc(b1-4)][Neu5Ac(a2-3)Gal(b1-4)GlcNAc(b1-2)Man(a1-6)]Man(b1-4)GlcNAc(b1-4)GlcNAc
# Method in brief: as §1
# [22] = target: Neu5Ac(a2-3)Gal(b1-4)GlcNAc(b1-2)Man(a1-3)[Neu5Ac(a2-3)Gal(b1-4)GlcNAc(b1-2)Man(a1-6)]Man(b1-4)GlcNAc(b1-4)GlcNAc
# Method in brief: as §1
# [23] = target: Neu5Ac(a2-3)Gal(b1-4)GlcNAc(b1-2)Man(a1-3)[Neu5Ac(a2-3)Gal(b1-4)GlcNAc(b1-2)Man(a1-6)]Man(b1-4)GlcNAc(b1-4)[Fuc(a1-6)]GlcNAc
# Method in brief: as §1
# [24] = target: Neu5Ac(a2-3)Gal(b1-4)GlcNAc(b1-2)Man(a1-3)[Neu5Ac(a2-6)Gal(b1-4)GlcNAc(b1-2)Man(a1-6)]Man(b1-4)GlcNAc(b1-4)GlcNAc
# Method in brief: as §1
# [25] = target: Neu5Ac(a2-3)Gal(b1-4)GlcNAc(b1-2)[Neu5Ac(a2-3)Gal(b1-4)GlcNAc(b1-4)]Man(a1-3)[GlcNAc(b1-4)][Neu5Ac(a2-3)Gal(b1-4)GlcNAc(b1-2)[Neu5Ac(a2-3)Gal(b1-4)GlcNAc(b1-6)]Man(a1-6)]Man(b1-4)GlcNAc(b1-4)GlcNAc
# Method in brief: as §1
# [26] = target: Neu5Ac(a2-3)Gal(b1-4)GlcNAc(b1-2)[Neu5Ac(a2-3)Gal(b1-4)GlcNAc(b1-4)]Man(a1-3)[GlcNAc(b1-4)][Neu5Ac(a2-3)Gal(b1-4)GlcNAc(b1-4)Man(a1-6)]Man(b1-4)GlcNAc(b1-4)GlcNAc
# Method in brief: as §1
# [27] = target: Neu5Ac(a2-3)Gal(b1-4)GlcNAc(b1-2)[Neu5Ac(a2-3)Gal(b1-4)GlcNAc(b1-6)]Man(a1-6)[Neu5Ac(a2-3)Gal(b1-4)GlcNAc(b1-2)Man(a1-3)][GlcNAc(b1-4)]Man(b1-4)GlcNAc(b1-4)GlcNAc
# Method in brief: as §1
# [28] = target: Neu5Ac(a2-3)Gal(b1-4)GlcNAc(b1-3)Gal
# Method in brief: as §1
# [29] = target: Neu5Ac(a2-3)Gal(b1-4)GlcNAc(b1-3)Gal(b1-3)GlcNAc
# Method in brief: as §1
# [30] = target: Neu5Ac(a2-3)Gal(b1-4)GlcNAc(b1-3)Gal(b1-4)GlcNAc
# Method in brief: as §1
# [31] = target: Neu5Ac(a2-3)Gal(b1-4)GlcNAc(b1-3)Gal(b1-4)GlcNAc(b1-2)Man(a1-3)[Neu5Ac(a2-3)Gal(b1-4)GlcNAc(b1-3)Gal(b1-4)GlcNAc(b1-2)Man(a1-6)]Man(b1-4)GlcNAc(b1-4)GlcNAc
# Method in brief: as §1
# [32] = target: Neu5Ac(a2-3)Gal(b1-4)GlcNAc(b1-3)Gal(b1-4)GlcNAc(b1-3)Gal(b1-4)GlcNAc
# Method in brief: as §1
# [33] = target: Neu5Ac(a2-3)Gal(b1-4)GlcNAc(b1-3)Gal(b1-4)GlcNAc(b1-3)Gal(b1-4)GlcNAc(b1-2)Man(a1-3)[Neu5Ac(a2-3)Gal(b1-4)GlcNAc(b1-3)Gal(b1-4)GlcNAc(b1-3)Gal(b1-4)GlcNAc(b1-2)Man(a1-6)]GalNAc
# Method in brief: as §1
# [34] = target: Neu5Ac(a2-3)Gal(b1-4)GlcNAc(b1-3)Gal(b1-4)GlcNAc(b1-3)GalNAc
# Method in brief: as §1
# [35] = target: Neu5Ac(a2-3)Gal(b1-4)GlcNAc(b1-3)Gal(b1-4)GlcNAc(b1-3)[Neu5Ac(a2-3)Gal(b1-4)GlcNAc(b1-3)Gal(b1-4)GlcNAc(b1-6)]GalNAc
# Method in brief: as §1
# [36] = target: Neu5Ac(a2-3)Gal(b1-4)GlcNAc(b1-3)Gal(b1-4)GlcNAc(b1-6)[Gal(b1-3)]GalNAc
# Method in brief: as §1
# [37] = target: Neu5Ac(a2-3)Gal(b1-4)GlcNAc(b1-3)Gal(b1-4)[Fuc(a1-3)]GlcNAc
# Method in brief: as §1
# [38] = target: Neu5Ac(a2-3)Gal(b1-4)GlcNAc(b1-3)GalNAc
# Method in brief: as §1
binder,measurement,setting,value
B1,glycan array binding signal (z-score),[1],-0.265
same,glycan array binding signal (z-score),[2],-0.083
same,glycan array binding signal (z-score),[3],-0.212
same,glycan array binding signal (z-score),[4],-0.189
same,glycan array binding signal (z-score),[5],-0.262
same,glycan array binding signal (z-score),[6],-0.265
same,glycan array binding signal (z-score),[7],-0.227
same,glycan array binding signal (z-score),[8],-0.225
same,glycan array binding signal (z-score),[9],-0.214
same,glycan array binding signal (z-score),[10],-0.187
same,glycan array binding signal (z-score),[11],-0.296
same,glycan array binding signal (z-score),[12],-0.255
same,glycan array binding signal (z-score),[13],-0.177
same,glycan array binding signal (z-score),[14],-0.257
same,glycan array binding signal (z-score),[15],-0.205
same,glycan array binding signal (z-score),[16],-0.149
same,glycan array binding signal (z-score),[17],-0.258
same,glycan array binding signal (z-score),[18],-0.17
same,glycan array binding signal (z-score),[19],-0.194
same,glycan array binding signal (z-score),[20],-0.139
same,glycan array binding signal (z-score),[21],-0.24
same,glycan array binding signal (z-score),[22],-0.249
same,glycan array binding signal (z-score),[23],-0.163
same,glycan array binding signal (z-score),[24],-0.076
same,glycan array binding signal (z-score),[25],-0.227
same,glycan array binding signal (z-score),[26],-0.243
same,glycan array binding signal (z-score),[27],-0.268
same,glycan array binding signal (z-score),[28],-0.227
same,glycan array binding signal (z-score),[29],0.004
same,glycan array binding signal (z-score),[30],-0.231
same,glycan array binding signal (z-score),[31],-0.218
same,glycan array binding signal (z-score),[32],-0.249
same,glycan array binding signal (z-score),[33],-0.163
same,glycan array binding signal (z-score),[34],-0.278
same,glycan array binding signal (z-score),[35],-0.155
same,glycan array binding signal (z-score),[36],-0.157
same,glycan array binding signal (z-score),[37],-2.14
same,glycan array binding signal (z-score),[38],-0.224
